Measurements published in PubChem BioAssay AID1476 (National Center for Advancing Translational Sciences (NCATS), 2009).
Hit rate of the full screen: of about 200,000 compounds, about 4,500 (2.2%) were called active. The shares of active, inactive and inconclusive entries below differ from those in the screen. Calls follow the shape of the dose curve; as a rule, active = well fitted inhibition curve with a large enough effect; inconclusive = small, poorly fitted or top-dose-only effect, or effect the other way; inactive = flat fitted curve, though single readings scatter. Potencies beside an inconclusive call are fits to weak or partial responses and may not hold up.

These compounds were tested against Cruzipain (Trypanosoma cruzi) (UniProt P25779) (assay: qHTS Assay for Promiscuous and Specific Inhibitors of Cruzain (without detergent)). Conditions: purified cruzain, Z-FR-AMC fluorescence, no detergent.
Chain of UniProt P25779 (P25779 whole entry, looked up): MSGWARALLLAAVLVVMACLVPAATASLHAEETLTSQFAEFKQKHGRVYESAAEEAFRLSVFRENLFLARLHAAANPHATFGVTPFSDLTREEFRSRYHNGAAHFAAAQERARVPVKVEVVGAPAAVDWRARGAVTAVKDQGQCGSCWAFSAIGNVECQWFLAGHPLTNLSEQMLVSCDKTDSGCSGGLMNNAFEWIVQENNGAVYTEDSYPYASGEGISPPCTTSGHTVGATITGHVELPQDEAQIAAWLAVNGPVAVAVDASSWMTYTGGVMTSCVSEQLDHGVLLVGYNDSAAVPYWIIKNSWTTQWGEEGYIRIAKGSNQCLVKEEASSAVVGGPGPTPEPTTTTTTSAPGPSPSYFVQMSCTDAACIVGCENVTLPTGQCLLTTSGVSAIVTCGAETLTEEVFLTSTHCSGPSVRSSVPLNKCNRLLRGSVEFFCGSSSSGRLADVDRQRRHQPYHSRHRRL
How it was run: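 Detergent-free condition (0.00005% Triton X-100) in acetate buffer pH 5.5 with DTT. 1.5 nM enzyme and compound were pre-mixed 15 min, then 2 uM Z-FR-AMC substrate added; reaction progress from fluorescence change between first and third reads (60 s).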
Also: nearly all actives have a fitted effect of over 40% in size.
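For max response, negative = inhibition in this document: plate controls were enzyme without inhibitor for no effect and buffer without enzyme for full effect.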
Potency is read from the fitted curve at half-maximal effect; tags tell the direction and shape of the fitted curve.

SMILES | Potency | max response, negative = inhibition
COc1ccccc1[C@H]1C(c2cccc(C)c2)=NN(c2ccccc2)[C@@H]1CO | active: 17.8 µM | 
COc1ccc(/C=C2\CCCC3C2=NN(C(=O)c2scnc2C)C3c2ccc(OC)c(OC)c2)cc1OC (stereo not given) | inconclusive: 31.6 µM [activator, single point] | 
CCc1ccc(-c2csc(NC(=O)c3cccnc3)n2)cc1 | inconclusive: 39.8 µM [inhibitor, single point] | 
COc1ccc(C2=NC(C)(C)N(CC(=O)Nc3ccc(F)c(F)c3)C2=O)cc1 |  | inactive: -4.05%
NC1=NC2(CCCCC2)N=C(Nc2ccc(Br)cc2)N1 | active: 20 µM | 
Cc1cc(NC(=O)NC(=O)c2cccc(OC(F)(F)C(F)F)c2)n[nH]1 | inconclusive: 25.1 µM [inhibitor, single point] | 
COc1ccc(-c2nsc(NC(=O)c3oc4cc(C)c(C)cc4c3C)n2)cc1 |  | inactive: -0.364%
COCCNc1ncnc2ccc(-c3ccccc3C)cc12 |  | inactive: 8.12%
Cc1cc(C(=O)OCC(=O)c2ccc3c(c2)NC(=O)CO3)c2ccccc2n1 | inconclusive: 12.6 µM [inhibitor, partial curve] | 
CCN1C(=O)C2(c3ccccc31)c1c(oc3ccc(F)cc3c1=O)C(=O)N2CCCOC (stereo not given) |  | inactive: 0.915%
CCCN1Cc2cccc(C(=O)Nc3cc(OC)cc(OC)c3)c2C1=O | inconclusive: 25.1 µM [activator, partial curve] | 
C=Cn1c(P(=S)(N2CCOCC2)N2CCOCC2)cc2c1CCCC2 | inconclusive: 31.6 µM [activator, single point] | 
O=C1CN(C(=O)Nc2ccccc2C(F)(F)F)C(c2ccccc2)c2c(sc3c2CCCC3)N1 (stereo not given) |  | inactive: -8.71%
O=C(N/N=C/c1ccc(-c2cccc(C(F)(F)F)c2)o1)c1ccccc1O | active: 10 µM | 
COc1cccc(-c2cc(=O)c3cc(O)ccc3o2)c1 |  | inactive: 9.35%
CCOC(=O)c1cnc2ccc(OCC)cc2c1N1CCN(c2ccccc2OC)CC1 | inconclusive: 39.8 µM [activator, single point] | 
O=C(N/N=C/c1ccc(O)cc1)c1ccc(COc2cc(Cl)ccc2Cl)o1 | inconclusive: 10 µM [activator, partial curve, poor fit] | 
CCOC(=O)/C(C#N)=C/c1ccc(-c2ccc(C)cc2)o1 |  | inactive: -9.82%
Cc1ccc(-n2nc3c(=O)n(CCCC(=O)NC(C)c4ccccc4)nc(C)c3c2C)cc1 (stereo not given) |  | inactive: -11.7%
COc1ccc(-c2nc(SCC(=O)Nc3ccc4c(c3)OCCO4)c(-c3ccccc3)[nH]2)cc1 | inconclusive: 39.8 µM [inhibitor, single point] | 
CC(=O)NC(Cc1ccccc1)C(=O)OCC(=O)c1ccccc1 (stereo not given) |  | inactive: -0.597%
O=C(COC(=O)C1Cc2ccccc2CN1C(=O)c1ccccc1)Nc1ccc(SC(F)F)cc1 (stereo not given) | inconclusive: 31.6 µM [inhibitor, single point] | 

SMILES | Potency | max response, negative = inhibition
COc1ccc(C)cc1-n1nnnc1SCC(=O)N1CCC(C(=O)Nc2nccs2)CC1 | inconclusive: 25.1 µM [activator, partial curve] | 
COc1ccc(NC(=O)CSc2ccc3c4c(cccc24)C(=O)c2ccccc2-3)cc1 | active: 12.6 µM | 
CS(=O)(=O)N(CC(=O)N1CCN(c2cccc(Cl)c2)CC1)C1CCCCC1 | inconclusive: 25.1 µM [activator, single point] | 
O=C1[C@H]2[C@@H](C(=O)N1c1cc(Cl)cc(Cl)c1)[C@]1(C(=O)Nc3ccccc31)N1CCC[C@@H]21 | inconclusive: 20 µM [activator, single point] | 
COC(=O)[C@@]1(Cc2ccc(F)cc2)[C@H]2c3cc(C(=O)N(C)C)n(CC4CC4)c3C[C@H]2CN1C(=O)c1ccccc1 | inconclusive: 15.8 µM [activator, partial curve] | 
CCCc1ccc(C(=O)NNC(=O)c2ccc(Cl)cc2)cc1 | inconclusive: 39.8 µM [inhibitor, single point] | 
CCOC(=O)c1cc(C)n(CC2CCC(C(=O)Nc3cc(OC)cc(OC)c3)CC2)c1C (stereo not given) |  | inactive: -8.21%
COC(=O)CCN(C(=O)C1CCN(S(=O)(=O)c2c(C)noc2/C=C/c2ccccc2F)CC1)c1ccccc1 | inconclusive: 39.8 µM [activator, single point] | 
COC(=O)c1cccc(S(=O)(=O)N2CCC(C)CC2)c1 | inconclusive: 39.8 µM [activator, single point] | 
CCOC(=O)COn1c2c(c3c4no[n+]([O-])c4ccc31)CCCC2 | inconclusive: 31.6 µM [inhibitor, single point] | 
Cc1ccccc1-c1nc(SCC(=O)N(C)c2ccccc2)c2c(=O)n(C)c(=O)n(C)c2n1 |  | inactive: 8.08%
Cc1ccc(C)c(CN2C(=O)c3ccccc3S(=O)c3ccc(C(=O)NCCC4=CCCCC4)cc32)c1 (stereo not given) | inconclusive: 10 µM [inhibitor, partial curve] | 
Cc1ccccc1NS(=O)(=O)c1nnc(NC(=O)c2ccco2)s1 |  | inactive: -13.5%
CCOC(=O)c1c(S(=O)(=O)NCC(=O)N(C)c2ccc(C)cc2)c(C)n(C)c1C |  | inactive: 6.75%
COc1ccc(C=O)cc1 |  | inactive: 5.46%
Cc1ccc(Oc2cc(NC(=O)CCCn3nc([N+](=O)[O-])c(Cl)c3C)cc([N+](=O)[O-])c2)cc1 | inconclusive: 39.8 µM [inhibitor, single point] | 
O=C(Nc1ccc(Cl)c(-c2nc3cc(Cl)ccc3o2)c1)c1cc2ccccc2o1 | inconclusive: 7.94 µM [inhibitor, single point] | 
C#CCCCCCCCCCCCC(=O)CC(O)COC(C)=O (stereo not given) |  | inactive: 6.45%
CCOc1ccc2c(c1)c(=O)c(S(=O)(=O)c1ccc(Cl)cc1)cn2Cc1ccccc1C | inconclusive: 25.1 µM [inhibitor, single point] | 
C[C@H]1[C@H](C)CC[C@]2(C(=O)O)CC[C@]3(C)C(=CCC4[C@@]5(C)C[C@@H](O)[C@H](O)[C@@](C)(CO)[C@@H]5CC[C@]43C)[C@H]12 (stereo not given in full) | inconclusive: 15.8 µM [activator, full curve] | 
COc1ccc2nc(NC(=O)c3cc(S(=O)(=O)N4CCOCC4)ccc3C)sc2c1 | inconclusive: 39.8 µM [activator, single point] | 
Cc1ccccc1OCc1ccc(-c2nc(C#N)c(N3CCC(C(N)=O)CC3)o2)o1 | inconclusive: 25.1 µM [activator, single point] | 

SMILES | Potency | max response, negative = inhibition
COCCn1c(SCC(=O)c2c(-c3ccccc3)n(C)c3ccccc23)nnc1-c1ccncc1 | inconclusive: 39.8 µM [activator, single point] | 
O=C(Oc1ccccc1)N1CCC2(CCCN(c3ccc(-c4ccccc4)cc3)C2)CC1 | active: 12.6 µM | 
Cc1cc(C)c(S(=O)(=O)NCCc2csc3nc(-c4ccc(Cl)cc4)nn23)c(C)c1 | inconclusive: 25.1 µM [activator, single point] | 
Cc1c(/C=N/NC(=O)c2ccccc2O)c2ccccn2c1C(=O)c1ccc(F)cc1 | active: 25.1 µM | 
Cn1cc(-c2nc3cncnc3n(-c3ccccc3)c2=O)c2ccccc21 | inconclusive: 39.8 µM [activator, single point] | 
CCc1nnc2c3ccccc3nc(Nc3cc(C)cc(C)c3)n12 |  | inactive: -3.6%
COc1ccc(-c2cc(-c3nc(-c4cc(OC)c(OC)c(OC)c4)no3)[nH]n2)c(OC)c1 | inconclusive: 10 µM [activator, partial curve] | 
COc1ccc(CN=Cc2[nH]c3ccc(Br)c(Cl)c3c2O)cc1 | active: 25.1 µM | 
COCCN=C1OC(=O)N2C(=O)C3=C4C(C[C@H]5C(=O)N(c6ccccc6)C(=O)[C@H]5[C@H]4[C@@]12Cc1ccccc1)[C@H]1C(=O)N(c2ccccc2)C(=O)[C@H]1[C@H]3C (stereo not given in full) | inconclusive: 39.8 µM [activator, single point] | 
Cc1c(NC(=O)c2cccs2)cccc1-c1nc2cc(Cl)ccc2o1 | inconclusive: 39.8 µM [inhibitor, single point] | 
CCCCCCCCN1C(=O)N(C)C(N(O)C(=O)NC)C1(C)C (stereo not given) | inconclusive: 25.1 µM [activator, partial curve] | 
COc1ccccc1NS(=O)(=O)c1cccc(C(=O)N/N=C/c2ccc3c(c2)OCCO3)c1 | inconclusive: 31.6 µM [inhibitor, single point] | 
CNC(=S)N1N=C(c2ccc(OC)cc2)CC1c1ccc(N(C)C)cc1 (stereo not given) | inconclusive: 39.8 µM [inhibitor, single point] | 
COc1ccccc1-c1ccc2ncnc(Nc3ccccc3)c2c1 |  | inactive: 17%
O=C(NNc1c2ccccc2nc2ccccc12)c1cc2ccccc2cc1O | active: 7.94 µM | 
N=C(N)c1ccc(/C=C\c2ccc(C(=N)N)cc2)cc1 | active: 3.16 µM | 
Cc1ccc2c(c1)C1C=CCC1C(C(=O)O)N2 (stereo not given) | inconclusive: 31.6 µM [activator, single point] | 
NC(=O)CC[C@H](NC(=O)c1ccc(F)cc1)C(=O)OCC(=O)Nc1c(F)c(F)c(F)c(F)c1F | active: 12.6 µM | 
Cc1cc(OCCCCN2C(=O)NC(C)(C)C2=O)cc(C)c1Cl |  | inconclusive: 143% [activator]
Cc1ccc(CNc2oc(-c3cccs3)nc2C#N)cc1 | inconclusive: 25.1 µM [activator, single point] | 
CC(=O)c1ccc(NC(=O)CN2C(=O)/C(=C/C(C)=C/c3ccccc3)SC2=S)cc1 | active: 10 µM | 
